Measurements taken from patent US20230122393A1, “STEROIDAL NITRONE F2 FOR USE IN THE PREVENTION AND/OR TREATMENT OF PERMANENT CEREBRAL ISCHAEMIA” (ISQUAEMIA BIOTECH, S.L., priority 2020, published 2023).

Legend:
global cerebral ischemia = assay: Neurological deficit score (NDS), therapy window study in global cerebral ischemia; details: F2 0.05 mg/kg i.v. 0-6 hours after reperfusion; 5 d
Method: Body temperature of 37° C. was maintained.
Evaluation of neurological deficits.
Animals were subjected to a functional test before sacrifice in order to quantify their potential disability. In this test, a series of variables related to the general state of the animal (breathing, coordination, aspect, etc.) were assigned a mark corresponding to the degree of severity by which that variable is affected.

[1] = tested on: permanent focal cerebral ischemia (pMCAO); assay: Somatosensory evoked potentials after permanent MCA occlusion (pMCAO); details: F2 0.1 mg/kg i.p. at 2 and 12 h; non-damaged hemisphere, after stroke
Method: FIG. 13. Evaluation of functional brain territory in stroke mice with pMCAO and treated with F2. (A) Representative somatosensory evoked contralateral potentials recorded before and 72 hours post-stroke in treated (F2) and non-treated (vehicle, control) mice. F2 was administered at 2 and 12 hours after MCA ligation. […] In both groups, the electrical stimulus was twice the current level necessary to obtain a supramaximal motor response, typically 1-2 mA. (B) Amplitude of evoked activity in the somatosensory cortex (forepaw sensory field) in the infarcted (left panel) and non-infarcted (right panel) hemispheres of non-treated (vehicle) and treated (F2) mice over time after stroke. The cartoons show the position of recording electrode in relation with the stimulated forepaw. Data are presented as the means ±SEM. For every time point analysed, the black asterisks denote significant differences between non-treated (vehicle) and treated (F2) mice (two-way ANOVA followed by Tukey's test; *p<0.05, **p<0.05).
FIG. 14. Ipsilateral activity in stroke mice with pMCAO and treated with F2. […]
The analysis of ipsilateral potentials corroborated these findings. […] In fact, in treated animals (F2) the temporal course of ipsilateral response followed the dynamics of contralateral response determined in the damaged hemisphere (FIG. 13B, left panel). […]

## CC(C)CCC[C@@H](C)[C@H]1CC[C@H]2[C@@H]3CCC4=C/C(=[N+](\C)[O-])CC[C@]4(C)[C@H]3CC[C@]12C [F2, (E)-N-((8S,9S,10R,13R,14S,17R)-10,13-dimethyl-17-((R)-6-methylheptan-2-yl)-7,8,9,11,12,13,14,15,16,17-decahydro-1H-cyclopenta[a]phenanthren-3(2H,6H,10H)-ylidene)methanamine oxide]
Global cerebral ischemia
  neurological deficit score (NDS) vs vehicle: improvement in the animal treated with F2 was observed with significative differences to the vehicle group
[1]
  ipsilateral potentials vs non-treated animals: more preserved in F2 mice than in non-treated animals
